Laboratory results from patent US20240228620A1 (BICARA THERAPEUTICS, published 2024).

What was measured:
Assay in all cases: flow cytometry on CD3e knockout Jurkat cells
[1] = target: T1, BCA624 (MOR) (424 Format)
T1 construct: Trispecific multispecific protein against MSLN (MORab009 arm), CD3 and CD28

[2] = target: T2, BCA605 (MOR) (405 Format)
T2 construct: Trispecific multispecific protein against MSLN (MORab009 arm), CD3 and CD28

[3] = target: T3, BCA606 (MOR) (406 Format)
T3 construct: Trispecific multispecific protein against MSLN (MORab009 arm), CD3 and CD28

Measured: binding result

B1: CD28 expressed on the surface of CD3 knockout Jurkat cells (receptor)
chain: not shown
notes: Endogenous CD28 of Jurkat cells; also called CD28 on CD3 knock out Jurkat cells; CD3e knockout Jurkat cells
binds: all assays above
